According to a collection of fitness landscapes (doi:10.1126/science.1257360):
The list shows a part of the results.

B1: PhoQ; a variant is named by its letters at X, in order, P23837 (parent)
chain: MKKLLRLFFPLSLRVRFLLATAAVVLVLSLAYGMVALIGYSVSFDKTTFRLLRGESNLFYTLAKWENNKLHVELPENIDKQSPTMTLIYDENGQLLWAQRDVPWLMKMIQPDWLKSNGFHEIEADVNDTSLLLSGDHSIQQQLQEVREDDDDAEMTHSVAVNVYPATSRMPKLTIVVVDTIPVELKSSYMVWSWFIYVLSANLLLVIPLLWVAAWWSLRPIEALAKEVRELEEHNRELLNPATTRELTSLVRNLNRLLKSERERYDKYRTTLTDLTHSLKTPLXXLQXXLRSLRSEKMSVSDAEPVMLEQISRISQQIGYYLHRASMRGGTLLSRELHPVAPLLDNLTSALNKVYQRKGVNISLDISPEISFVGEQNDFVEVMGNVLDNACKYCLEFVEISARQTDEHLYIVVEDDGPGIPLSKREVIFDRGQRVDTLRPGQGVGLAVAREITEQYEGKIVAGESMLGGARMEVIFGRQHSAPKDE

Variants of: B1
Assay: enrichment ratio after two sorts for PhoP signalling (ratio (wild type AVST 3.29)); higher = more functional
Details: with PhoP (E. coli)

Row | Variant | enrichment ratio
1 | YMAK | ≤ 0.25
2 | DTFC | ≤ 0.25
3 | AIGY | 1.1
4 | SGPK | ≤ 0.25
5 | QSVY | ≤ 0.25
6 | MTPF | ≤ 0.25
7 | NSTQ | ≤ 0.25
8 | EYHY | ≤ 0.25
9 | VATA | ≤ 0.25
10 | GDNE | ≤ 0.25
11 | RAWI | ≤ 0.25
12 | HPAH | ≤ 0.25
13 | QNIF | ≤ 0.25
14 | CFHV | ≤ 0.25
15 | EIPP | ≤ 0.25
16 | RQMC | ≤ 0.25
17 | IYGC | ≤ 0.25
18 | HKTW | ≤ 0.25
19 | TPRI | ≤ 0.25
20 | HFGK | ≤ 0.25
21 | QKFK | ≤ 0.25
22 | GKHS | ≤ 0.25
23 | DFWT | ≤ 0.25
24 | TSEW | ≤ 0.25
25 | GQVH | ≤ 0.25

Row | Variant | enrichment ratio
26 | RCGR | ≤ 0.25
27 | MTCS | ≤ 0.25
28 | LNLL | ≤ 0.25
29 | TQHC | 0.717
30 | MTEQ | ≤ 0.25
31 | DFYY | ≤ 0.25
32 | FVLV | 1.48
33 | CHIC | ≤ 0.25
34 | MAWY | 2.07
35 | LIIT | ≤ 0.25
36 | GGGN | ≤ 0.25
37 | LLKN | ≤ 0.25
38 | TLHS | ≤ 0.25
39 | ILSV | ≤ 0.25
40 | LFMW | ≤ 0.25
41 | THHT | ≤ 0.25
42 | IARR | ≤ 0.25
43 | FRED | ≤ 0.25
44 | DEHL | 0.792
45 | NQSY | ≤ 0.25
46 | EVDT | ≤ 0.25
47 | TRLG | 2.12
48 | HCVS | ≤ 0.25
49 | GVSR | ≤ 0.25
50 | WEDA | ≤ 0.25

Row | Variant | enrichment ratio
51 | SDRA | ≤ 0.25
52 | KLML | ≤ 0.25
53 | KTHP | ≤ 0.25
54 | NIQV | ≤ 0.25
55 | RTGG | ≤ 0.25
56 | NQTL | ≤ 0.25
57 | WDFR | ≤ 0.25
58 | TAGP | ≤ 0.25
59 | TTRN | ≤ 0.25
60 | NARE | ≤ 0.25
61 | ENTH | ≤ 0.25
62 | GNSV | 8.29
63 | DMDD | ≤ 0.25
64 | AVAP | ≤ 0.25
65 | AWIR | ≤ 0.25
66 | FPNE | ≤ 0.25
67 | GTPE | ≤ 0.25
68 | YLAN | ≤ 0.25
69 | HFMK | ≤ 0.25
70 | WCYH | ≤ 0.25
71 | VTCE | ≤ 0.25
72 | STLR | 4.1
73 | EKTF | ≤ 0.25
74 | ESNC | ≤ 0.25
75 | RDTQ | ≤ 0.25

Row | Variant | enrichment ratio
76 | RYSN | ≤ 0.25
77 | SEKV | ≤ 0.25
78 | ELPY | ≤ 0.25
79 | INQQ | ≤ 0.25
80 | HWML | ≤ 0.25
81 | RISE | ≤ 0.25
82 | DWLL | ≤ 0.25
83 | IHLE | ≤ 0.25
84 | RVKD | ≤ 0.25
85 | REQS | ≤ 0.25
86 | PSYS | ≤ 0.25
87 | DMFW | ≤ 0.25
88 | QWMA | ≤ 0.25
89 | KATK | ≤ 0.25
90 | YNKI | ≤ 0.25
91 | LCFN | ≤ 0.25
92 | GMVS | ≤ 0.25
93 | QNKS | ≤ 0.25
94 | TDNV | ≤ 0.25
95 | RLKW | ≤ 0.25
96 | KRYL | ≤ 0.25
97 | ACDP | ≤ 0.25
